# The shares of active, inactive and inconclusive entries below differ from those in the screen. Where the call is inconclusive, the potency comes from a doubtful curve fit. Active and inactive are the calls of the source. Calls follow the shape of the dose curve; as a rule, active = well fitted inhibition curve with a large enough effect; inconclusive = small, poorly fitted or top-dose-only effect; inactive = flat fitted curve, though single readings scatter.
# Test system: UISO
# Assay: qHTS assay to identify novel small-molecules to repurpose for Merkel cell carcinoma treatment (AID 1296009); also: nearly all actives have a fitted effect of over 60% in size
# Conditions: MCC and control cell lines, CellTiter-Glo viability, 72 h; series mostly up to 46 µM; activity change, negative = cytotoxicity: at the top concentration
# Outline: (§1)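 qHTS format: cells treated with library compounds in DMSO across 8 (NPC) or 11 (MIPE) concentrations. Readout after 72 hr at 37 degree celsius was CellTiter-Glo luminescence.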
# % is scaled to controls: 0 for no effect and ±100 for the full control effect; potency is read from the fitted curve at half-maximal effect; tags tell the direction and shape of the fitted curve.
Structure (SMILES),Potency,"activity change, negative = cytotoxicity"
CC(C)(N)c1ccc(-c2nc3ccccc3nc2-c2ccccc2)cc1,"inconclusive: 14.8 µM [inhibitor, partial curve]",–
NC(=O)N1CCC(CC(=O)N2CCC([C@H]3c4ncc(Br)cc4CCc4cc(Cl)cc(Br)c43)CC2)CC1,"inconclusive: 7.43 µM [inhibitor, full curve]",–
Cc1cc(-c2ncc(CC(=O)Nc3ccc(-c4cnccn4)cn3)cc2C)ccn1,"inconclusive: 18.7 µM [inhibitor, single point]",–
O=C(Nc1ncc(SCCN2CCCC2)s1)[C@]1(c2ccc(S(=O)(=O)C3CC3)cc2)C[C@@H]1C1CCCCC1,"inconclusive: 37.2 µM [inhibitor, single point]",–
NC(=NCCCCCCN=C(N)N=C(N)Nc1ccc(Cl)cc1)N=C(N)Nc1ccc(Cl)cc1,"inconclusive: 16.6 µM [inhibitor, partial curve]",–
N#CC(c1ccc(Cl)cc1)c1c(Cl)cc(-n2ncc(=O)[nH]c2=O)cc1Cl (centres undefined),–,inactive: -20.1%
Cc1cc(OCCCS(C)(=O)=O)cc(C)c1-c1cccc(COc2ccc3c(c2)OC[C@H]3CC(=O)O)c1,"inconclusive: 20.9 µM [inhibitor, single point]",–
CC(=O)c1c(C)c2cnc(Nc3ccc(N4CCNCC4)cn3)nc2n(C2CCCC2)c1=O,"inconclusive: 23.5 µM [inhibitor, partial curve, poor fit]",–
CC[C@H]1OC(=O)[C@H](C)[C@@H](O[C@H]2C[C@@](C)(OC)[C@@H](O)[C@H](C)O2)[C@H](C)[C@@H](O[C@@H]2O[C@@H](C)C[C@H](N(C)C)[C@@H]2O)[C@](C)(O)C[C@@H](C)C(=O)[C@H](C)[C@@H](O)[C@]1(C)O,–,inactive: 7.49%
O=C(Nc1cccc2c(=O)cc(-c3nn[nH]n3)oc12)c1ccc(OCCCCc2ccccc2)cc1,"inconclusive: 23.5 µM [inhibitor, single point]",–
CC(C)[C@H](C(=O)Nc1ccc(C(=O)NO)cc1)c1ccccc1,active: 3.32 µM,–
CCN(CC)CCCCNc1nc2cc(Cl)c(Cl)cc2nc1-c1ccc(-c2cccs2)s1,"inconclusive: 26.4 µM [inhibitor, single point]",–
C=CC(=O)Nc1cc(NC(=O)c2ccc(C)c(NC(=O)c3ccno3)c2)cc(C(F)(F)F)c1,"inconclusive: 23.5 µM [inhibitor, single point]",–
COc1ccc2cc1Oc1ccc(cc1)C[C@H]1c3cc(c(OC)cc3CCN1C)Oc1c(OC)c(OC)cc3c1[C@H](C2)N(C)CC3,"inconclusive: 23.5 µM [inhibitor, single point]",–
c1cc(OCCN2CCCCC2)cc(-c2n[nH]c3ccc(-c4ncn[nH]4)cc23)c1,"inconclusive: 4.18 µM [inhibitor, full curve]",–
CN1c2ccccc2C(=O)N2CCc3c([nH]c4ccccc34)C21 (centres undefined),–,inactive: 15.1%
COc1cc2c(cc1OC)[C@@H]1C(=O)c3ccc4c(c3O[C@@H]1CO2)C=CC(C)(C)O4,"inconclusive: 0.166 µM [inhibitor, full curve]",–
CC1(O)CC(c2nc(-c3ccc4ccc(-c5ccccc5)nc4c3)c3c(N)nccn23)C1 (centres undefined),active: 0.662 µM,–
Cn1cc(-c2ccncc2)c(-c2ccc(OCc3ccc4ccccc4n3)cc2)n1,"inconclusive: 7.43 µM [inhibitor, partial curve]",–
CC(C)C[C@H](NC(=O)c1cc2ccccc2s1)C(=O)N1CCN(C(=O)[C@H](CO)NS(=O)(=O)c2ccc(Cl)cc2Cl)CC1,"inconclusive: 0.0118 µM [inhibitor, full curve]",–

# Test system: WaGa
# Assay: as above
# Conditions: MCC and control cell lines, CellTiter-Glo viability, 72 h; series mostly up to 46 µM; activity change, negative = cytotoxicity: at the top concentration
# Outline: as §1
Structure (SMILES),Potency,"activity change, negative = cytotoxicity"
Cc1cc(-c2ncc(CC(=O)Nc3ccc(-c4cnccn4)cn3)cc2C)ccn1,"inconclusive: 14.8 µM [inhibitor, partial curve]",–
CS(=O)(=O)Oc1ccc2c(NC(N)=O)c(C(=O)c3ccc(Cl)cc3Cl)oc2c1,active: 0.833 µM,–
NC(=NCCCCCCN=C(N)N=C(N)Nc1ccc(Cl)cc1)N=C(N)Nc1ccc(Cl)cc1,"inconclusive: 26.4 µM [inhibitor, single point]",–
Cc1cc(OCCCS(C)(=O)=O)cc(C)c1-c1cccc(COc2ccc3c(c2)OC[C@H]3CC(=O)O)c1,"inconclusive: 29.6 µM [inhibitor, partial curve]",–
CCc1nc(-c2cccc(C)c2)c(-c2ccnc(NC(=O)c3ccccc3)c2)s1,"inconclusive: 18.7 µM [inhibitor, partial curve]",–
CCCc1nc(C(C)(C)O)c(C(=O)O)n1Cc1ccc(-c2ccccc2-c2nn[nH]n2)cc1,–,inactive: -1.89%
O=C1CN2Cc3c(ccc(Cl)c3Cl)N=C2N1,–,inactive: -23.5%
CCN(CC)CCCCNc1nc2cc(Cl)c(Cl)cc2nc1-c1ccc(-c2cccs2)s1,"inconclusive: 26.4 µM [inhibitor, single point]",–
CC(C)(F)C[C@H](N[C@@H](c1ccc(-c2ccc(S(C)(=O)=O)cc2)cc1)C(F)(F)F)C(=O)NC1(C#N)CC1,–,inactive: -6.98%
C=CC(=O)Nc1cc(NC(=O)c2ccc(C)c(NC(=O)c3ccno3)c2)cc(C(F)(F)F)c1,active: 18.7 µM,–
COc1ccc2cc1Oc1ccc(cc1)C[C@H]1c3cc(c(OC)cc3CCN1C)Oc1c(OC)c(OC)cc3c1[C@H](C2)N(C)CC3,"inconclusive: 23.5 µM [inhibitor, single point]",–
COc1cc2c(cc1OC)[C@@H]1C(=O)c3ccc4c(c3O[C@@H]1CO2)C=CC(C)(C)O4,active: 0.662 µM,–
CC1(O)CC(c2nc(-c3ccc4ccc(-c5ccccc5)nc4c3)c3c(N)nccn23)C1 (centres undefined),"inconclusive: 1.66 µM [inhibitor, partial curve]",–
Cn1cc(-c2ccncc2)c(-c2ccc(OCc3ccc4ccccc4n3)cc2)n1,"inconclusive: 4.69 µM [inhibitor, full curve]",–
